According to paper PMC10548512 (Chemical Science, 2023):

Details: incubation for a total of 4 hours, 37 °C, PURExpress translation mixture; read-out MALDI-TOF-MS; no further change to product

H-CILFPTGKRB-OH (sidechain bridge or staple) [P1]
Stability of macrocyclic peptide in in vitro translation reaction mixture: stable
